The IC50 comes from the fitted curve, where viability falls to half of the control; fits outside the tested doses are given as limits. The AUC spans the tested range (256-fold, ending at the top dose) of the same fit; values near 1 show little effect. Where the top dose is marked as inferred, it was derived from the fitted curves, not read from the paper.
Compound: CC1=C(C(=O)Nc2cc3cn[nH]c3cc2F)C(c2ccc(C(F)(F)F)cc2)CC(=O)N1 [GSK429286A]
Experiment: Viability of human cancer cell lines after 72 h of drug (GDSC screen)
Conditions: top dose inferred
Experimental: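 Human cancer cell lines in 384-well plates, medium with 10% serum, drug for 72 h over a 256-fold dose range (nine 2-fold or five 4-fold steps up to the top dose). Adherent lines were fixed and stained with the nucleic acid dye Syto60, suspension lines read with resazurin; signal relative to control wells, capped at 0 and 100%. One two-parameter sigmoid per drug and line, fitted in a mixed model over all curves with the slope shared within a line.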

Cell Line | AUC | IC50
OE19 (oesophagus, adherent, top dose 20 µM) | 0.986 | > 20 µM
OE21 (oesophagus, adherent, top dose 20 µM) | 0.973 | > 20 µM
OE33 (oesophagus, adherent, top dose 20 µM) | 0.984 | > 20 µM
OMC-1 (cervix, adherent, top dose 20 µM) | 0.97 | > 20 µM
ONS-76 (medulloblastoma, adherent, top dose 20 µM) | 0.937 | > 20 µM
OPM-2 (myeloma, suspension, top dose 20 µM) | 0.96 | > 20 µM
OS-RC-2 (kidney, adherent, top dose 20 µM) | 0.95 | > 20 µM
OSC-19 (head and neck, adherent, top dose 20 µM) | 0.983 | > 20 µM
OSC-20 (head and neck, adherent, top dose 20 µM) | 0.965 | > 20 µM
OV-7 (ovary, adherent, top dose 20 µM) | 0.732 | 8.25 µM
OV-17R (ovary, adherent, top dose 20 µM) | 0.977 | > 20 µM
OV-56 (ovary, adherent, top dose 20 µM) | 0.98 | > 20 µM
OV-90 (ovary, adherent, top dose 20 µM) | 0.968 | > 20 µM
OVCA420 (ovary, adherent, top dose 20 µM) | 0.979 | > 20 µM
OVCA433 (ovary, adherent, top dose 20 µM) | 0.965 | > 20 µM
OVCAR-3 (ovary, adherent, top dose 20 µM) | 0.986 | > 20 µM
OVCAR-4 (ovary, adherent, top dose 20 µM) | 0.969 | > 20 µM
OVCAR-5 (ovary, adherent, top dose 20 µM) | 0.972 | > 20 µM
OVCAR-8 (ovary, adherent, top dose 20 µM) | 0.975 | > 20 µM
OVISE (ovary, adherent, top dose 20 µM) | 0.975 | > 20 µM
OVK-18 (ovary, adherent, top dose 20 µM) | 0.985 | > 20 µM

Cell Line | AUC | IC50
OVKATE (ovary, adherent, top dose 20 µM) | 0.979 | > 20 µM
OVMIU (ovary, adherent, top dose 20 µM) | 0.981 | > 20 µM
OVTOKO (ovary, adherent, top dose 20 µM) | 0.954 | > 20 µM
P12-ICHIKAWA (T-cell lymphoblastic leukaemia, suspension, top dose 20 µM) | 0.922 | 18.9 µM
P30-OHK (lymphoblastic leukaemia, suspension, top dose 20 µM) | 0.858 | 12.3 µM
P31-FUJ (acute myeloid leukaemia, suspension, top dose 20 µM) | 0.988 | > 20 µM
P32-ISH (Burkitt lymphoma, suspension, top dose 20 µM) | 0.964 | > 20 µM
PA-1 (ovary, adherent, top dose 20 µM) | 0.91 | 17.3 µM
PA-TU-8902 (pancreas, adherent, top dose 20 µM) | 0.967 | > 20 µM
PA-TU-8988T (pancreas, adherent, top dose 20 µM) | 0.985 | > 20 µM
PANC-02-03 (pancreas, adherent, top dose 20 µM) | 0.972 | > 20 µM
PANC-03-27 (pancreas, adherent, top dose 20 µM) | 0.989 | > 20 µM
PANC-04-03 (pancreas, adherent, top dose 20 µM) | 0.976 | > 20 µM
PANC-08-13 (pancreas, adherent, top dose 20 µM) | 0.983 | > 20 µM
PANC-10-05 (pancreas, adherent, top dose 20 µM) | 0.982 | > 20 µM
PC-3 (prostate, adherent, top dose 20 µM) | 0.954 | > 20 µM
PC-3 [JPC-3] (lung adenocarcinoma, adherent, top dose 20 µM) | 0.96 | > 20 µM
PC-14 (lung adenocarcinoma, adherent, top dose 20 µM) | 0.987 | > 20 µM
PCI-4B (head and neck, adherent, top dose 20 µM) | 0.974 | > 20 µM
PCI-6A (head and neck, adherent, top dose 20 µM) | 0.965 | > 20 µM
PCI-15A (head and neck, adherent, top dose 20 µM) | 0.978 | > 20 µM

Cell Line | AUC | IC50
PCI-30 (head and neck, adherent, top dose 20 µM) | 0.98 | > 20 µM
PCI-38 (head and neck, adherent, top dose 20 µM) | 0.977 | > 20 µM
PE/CA-PJ15 (head and neck, adherent, top dose 20 µM) | 0.98 | > 20 µM
PEO1 (ovary, adherent, top dose 20 µM) | 0.972 | > 20 µM
PF-382 (T-cell lymphoblastic leukaemia, suspension, top dose 20 µM) | 0.705 | 4.33 µM
PFSK-1 (medulloblastoma, adherent, top dose 20 µM) | 0.977 | > 20 µM
PL4 (pancreas, adherent, top dose 20 µM) | 0.985 | > 20 µM
PL18 (pancreas, adherent, top dose 20 µM) | 0.986 | > 20 µM
PL-21 (acute myeloid leukaemia, suspension, top dose 20 µM) | 0.782 | 9.82 µM
PSN1 (pancreas, adherent, top dose 20 µM) | 0.96 | > 20 µM
QGP-1 (pancreas, adherent, top dose 20 µM) | 0.946 | > 20 µM
QIMR-WIL (acute myeloid leukaemia, suspension, top dose 20 µM) | 0.767 | 7.22 µM
RC-K8 (B-cell lymphoma, suspension, top dose 20 µM) | 0.985 | > 20 µM
RCC10RGB (kidney, adherent, top dose 10.24 µM) | 0.928 | > 10.2 µM
RCC-AB (kidney, adherent, top dose 20 µM) | 0.968 | > 20 µM
RCC-ER (kidney, adherent, top dose 20 µM) | 0.983 | > 20 µM
RCC-FG2 (kidney, adherent, top dose 20 µM) | 0.977 | > 20 µM
RCC-JF (kidney, adherent, top dose 20 µM) | 0.727 | 6.04 µM
RCC-JW (kidney, adherent, top dose 20 µM) | 0.916 | > 20 µM
RCC-MF (kidney, adherent, top dose 20 µM) | 0.968 | > 20 µM
RCM-1 (large intestine, adherent, top dose 20 µM) | 0.982 | > 20 µM

Cell Line | AUC | IC50
RD (rhabdomyosarcoma, adherent, top dose 20 µM) | 0.976 | > 20 µM
REH (B-cell leukaemia, suspension, top dose 20 µM) | 0.972 | > 20 µM
RERF-GC-1B (stomach, adherent, top dose 20 µM) | 0.96 | > 20 µM
RERF-LC-KJ (lung adenocarcinoma, adherent, top dose 20 µM) | 0.976 | > 20 µM
RERF-LC-MS (lung adenocarcinoma, adherent, top dose 20 µM) | 0.98 | > 20 µM
RERF-LC-Sq1 (lung squamous cell carcinoma, adherent, top dose 20 µM) | 0.946 | > 20 µM
RF-48 (stomach, adherent, top dose 20 µM) | 0.949 | > 20 µM
RH-1 (rhabdomyosarcoma, adherent, top dose 20 µM) | 0.967 | > 20 µM
RH-18 (rhabdomyosarcoma, adherent, top dose 20 µM) | 0.978 | > 20 µM
RH-41 (rhabdomyosarcoma, adherent, top dose 20 µM) | 0.992 | > 20 µM
RKN (ovary, adherent, top dose 20 µM) | 0.961 | > 20 µM
RKO (large intestine, adherent, top dose 20 µM) | 0.981 | > 20 µM
RL95-2 (endometrium, adherent, top dose 20 µM) | 0.981 | > 20 µM
RL (B-cell lymphoma, suspension, top dose 20 µM) | 0.958 | > 20 µM
RMG-I (ovary, adherent, top dose 20 µM) | 0.983 | > 20 µM
RO82-W-1 (thyroid, adherent, top dose 20 µM) | 0.968 | > 20 µM
ROS-50 (B-cell leukaemia, suspension, top dose 20 µM) | 0.95 | > 20 µM
RPMI-2650 (head and neck, adherent, top dose 20 µM) | 0.96 | > 20 µM
RPMI-6666 (Hodgkin lymphoma, suspension, top dose 20 µM) | 0.9 | > 20 µM
RPMI-7951 (melanoma, adherent, top dose 20 µM) | 0.873 | 18.2 µM
